From the supplement of paper PMC8728848
The other results are listed elsewhere or left out.

How the values were obtained:
Assay in all cases: glycan array binding signal (z-score within array); higher = stronger binding
Conditions in all cases: glycan notation: IUPAC condensed, linker removed
[1] = target: Gal(b1-4)GlcNAc(b1-3)Gal(b1-4)GlcNAc(b1-2)[Gal(b1-4)GlcNAc(b1-3)Gal(b1-4)GlcNAc(b1-6)]Man(a1-6)[Gal(b1-4)GlcNAc(b1-3)Gal(b1-4)GlcNAc(b1-2)Man(a1-3)]Man(b1-4)GlcNAc(b1-4)GlcNAc
How it was run: (§1)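 The binding signal is a Z-score computed within each array. Data were drawn from 3228 arrays in the Consortium for Functional Glycomics database, restricted to those with a known protein sequence. Scores were averaged over arrays of the same protein sequence at different concentrations or buffers, and over linkers, and negative values can be taken as non-binding.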

[2] = target: Gal(b1-4)GlcNAc(b1-3)Gal(b1-4)GlcNAc(b1-2)[Gal(b1-4)GlcNAc(b1-3)Gal(b1-4)GlcNAc(b1-6)]Man(a1-6)[Gal(b1-4)GlcNAc(b1-3)Gal(b1-4)GlcNAc(b1-2)Man(a1-3)]Man(b1-4)GlcNAc(b1-4)[Fuc(a1-6)]GlcNAc
How it was run: as §1

[3] = target: Gal(b1-4)GlcNAc(b1-3)Gal(b1-4)GlcNAc(b1-3)Gal(b1-4)GlcNAc
How it was run: as §1

[4] = target: Gal(b1-4)GlcNAc(b1-3)Gal(b1-4)GlcNAc(b1-3)Gal(b1-4)GlcNAc(b1-2)Man(a1-3)[Gal(b1-4)GlcNAc(b1-3)Gal(b1-4)GlcNAc(b1-3)Gal(b1-4)GlcNAc(b1-2)Man(a1-6)]Man(b1-4)GlcNAc(b1-4)GlcNAc
How it was run: as §1

[5] = target: Gal(b1-4)GlcNAc(b1-3)Gal(b1-4)GlcNAc(b1-3)Gal(b1-4)GlcNAc(b1-2)Man(a1-3)[Gal(b1-4)GlcNAc(b1-3)Gal(b1-4)GlcNAc(b1-3)Gal(b1-4)GlcNAc(b1-2)Man(a1-6)]Man(b1-4)GlcNAc(b1-4)[Fuc(a1-6)]GlcNAc
How it was run: as §1

[6] = target: Gal(b1-4)GlcNAc(b1-3)Gal(b1-4)GlcNAc(b1-3)Gal(b1-4)GlcNAc(b1-2)[Gal(b1-4)GlcNAc(b1-3)Gal(b1-4)GlcNAc(b1-3)Gal(b1-4)GlcNAc(b1-6)]Man(a1-6)[Gal(b1-4)GlcNAc(b1-3)Gal(b1-4)GlcNAc(b1-3)Gal(b1-4)GlcNAc(b1-2)Man(a1-3)]Man(b1-4)GlcNAc(b1-4)[Fuc(a1-6)]GlcNAc
How it was run: as §1

[7] = target: Gal(b1-4)GlcNAc(b1-3)Gal(b1-4)GlcNAc(b1-3)Gal(b1-4)GlcNAc(b1-3)Gal(b1-4)GlcNAc(b1-2)Man(a1-3)[Gal(b1-4)GlcNAc(b1-3)Gal(b1-4)GlcNAc(b1-3)Gal(b1-4)GlcNAc(b1-3)Gal(b1-4)GlcNAc(b1-2)Man(a1-6)]Man(b1-4)GlcNAc(b1-4)GlcNAc
How it was run: as §1

[8] = target: Gal(b1-4)GlcNAc(b1-3)Gal(b1-4)GlcNAc(b1-3)Gal(b1-4)GlcNAc(b1-3)Gal(b1-4)GlcNAc(b1-2)Man(a1-3)[Gal(b1-4)GlcNAc(b1-3)Gal(b1-4)GlcNAc(b1-3)Gal(b1-4)GlcNAc(b1-3)Gal(b1-4)GlcNAc(b1-2)Man(a1-6)]Man(b1-4)GlcNAc(b1-4)[Fuc(a1-6)]GlcNAc
How it was run: as §1

[9] = target: Gal(b1-4)GlcNAc(b1-3)Gal(b1-4)GlcNAc(b1-3)Gal(b1-4)GlcNAc(b1-3)Gal(b1-4)GlcNAc(b1-2)[Gal(b1-4)GlcNAc(b1-3)Gal(b1-4)GlcNAc(b1-3)Gal(b1-4)GlcNAc(b1-3)Gal(b1-4)GlcNAc(b1-6)]Man(a1-6)[Gal(b1-4)GlcNAc(b1-3)Gal(b1-4)GlcNAc(b1-3)Gal(b1-4)GlcNAc(b1-3)Gal(b1-4)GlcNAc(b1-2)Man(a1-3)]Man(b1-4)GlcNAc(b1-4)[Fuc(a1-6)]GlcNAc
How it was run: as §1

[10] = target: Gal(b1-4)GlcNAc(b1-3)Gal(b1-4)GlcNAc(b1-3)Gal(b1-4)GlcNAc(b1-3)Gal(b1-4)GlcNAc(b1-3)Gal(b1-4)GlcNAc(b1-2)Man(a1-3)[Gal(b1-4)GlcNAc(b1-3)Gal(b1-4)GlcNAc(b1-3)Gal(b1-4)GlcNAc(b1-3)Gal(b1-4)GlcNAc(b1-3)Gal(b1-4)GlcNAc(b1-2)Man(a1-6)]Man(b1-4)GlcNAc(b1-4)GlcNAc
How it was run: as §1

[11] = target: Gal(b1-4)GlcNAc(b1-3)Gal(b1-4)GlcNAc(b1-3)Gal(b1-4)GlcNAc(b1-3)Gal(b1-4)GlcNAc(b1-3)Gal(b1-4)GlcNAc(b1-2)Man(a1-3)[Gal(b1-4)GlcNAc(b1-3)Gal(b1-4)GlcNAc(b1-3)Gal(b1-4)GlcNAc(b1-3)Gal(b1-4)GlcNAc(b1-3)Gal(b1-4)GlcNAc(b1-2)Man(a1-6)]Man(b1-4)GlcNAc(b1-4)[Fuc(a1-6)]GlcNAc
How it was run: as §1

[12] = target: Gal(b1-4)GlcNAc(b1-3)Gal(b1-4)GlcNAc(b1-3)Gal(b1-4)GlcNAc(b1-3)Gal(b1-4)GlcNAc(b1-3)Gal(b1-4)GlcNAc(b1-2)[Gal(b1-4)GlcNAc(b1-3)Gal(b1-4)GlcNAc(b1-3)Gal(b1-4)GlcNAc(b1-3)Gal(b1-4)GlcNAc(b1-3)Gal(b1-4)GlcNAc(b1-6)]Man(a1-6)[Gal(b1-4)GlcNAc(b1-3)Gal(b1-4)GlcNAc(b1-3)Gal(b1-4)GlcNAc(b1-3)Gal(b1-4)GlcNAc(b1-3)Gal(b1-4)GlcNAc(b1-2)Man(a1-3)]Man(b1-4)GlcNAc(b1-4)[Fuc(a1-6)]GlcNAc
How it was run: as §1

[13] = target: Gal(b1-4)GlcNAc(b1-3)Gal(b1-4)GlcNAc(b1-3)Gal(b1-4)GlcNAc(b1-3)Gal(b1-4)GlcNAc(b1-3)Gal(b1-4)GlcNAc(b1-3)Gal(b1-4)GlcNAc(b1-2)Man(a1-3)[Gal(b1-4)GlcNAc(b1-3)Gal(b1-4)GlcNAc(b1-3)Gal(b1-4)GlcNAc(b1-3)Gal(b1-4)GlcNAc(b1-3)Gal(b1-4)GlcNAc(b1-3)Gal(b1-4)GlcNAc(b1-2)Man(a1-6)]Man(b1-4)GlcNAc(b1-4)GlcNAc
How it was run: as §1

[14] = target: Gal(b1-4)GlcNAc(b1-3)Gal(b1-4)GlcNAc(b1-3)GalNAc
How it was run: as §1

[15] = target: Gal(b1-4)GlcNAc(b1-3)Gal(b1-4)GlcNAc(b1-3)[Gal(b1-4)GlcNAc(b1-3)Gal(b1-4)GlcNAc(b1-6)]GalNAc
How it was run: as §1

[16] = target: Gal(b1-4)GlcNAc(b1-3)Gal(b1-4)GlcNAc(b1-6)[Gal(b1-3)]GalNAc
How it was run: as §1

[17] = target: Gal(b1-4)GlcNAc(b1-3)Gal(b1-4)[Fuc(a1-3)]GlcNAc(b1-3)Gal(b1-4)[Fuc(a1-3)]GlcNAc
How it was run: as §1

[18] = target: Gal(b1-4)GlcNAc(b1-3)GalNAc
How it was run: as §1

[19] = target: Gal(b1-4)GlcNAc(b1-3)[Fuc(a1-3)GlcNAc(b1-6)]Gal(b1-4)Glc
How it was run: as §1

[20] = target: Gal(b1-4)GlcNAc(b1-3)[Gal(b1-4)GlcNAc(b1-6)]Gal(b1-4)GlcNAc
How it was run: as §1

[21] = target: Gal(b1-4)GlcNAc(b1-3)[GlcNAc(b1-6)]Gal(b1-4)GlcNAc
How it was run: as §1

[22] = target: Gal(b1-4)GlcNAc(b1-6)Gal(b1-4)GlcNAc
How it was run: as §1

[23] = target: Gal(b1-4)GlcNAc(b1-6)GalNAc
How it was run: as §1

[24] = target: Gal(b1-4)GlcNAc(b1-6)[Gal(b1-3)]GalNAc
How it was run: as §1

[25] = target: Gal(b1-4)GlcNAc(b1-6)[Gal(b1-4)GlcNAc(b1-3)]GalNAc
How it was run: as §1

[26] = target: Gal(b1-4)GlcNAc6P
How it was run: as §1

[27] = target: Gal(b1-6)Gal
How it was run: as §1

[28] = target: Gal3S(b1-3)GalNAc
How it was run: as §1

[29] = target: Gal3S(b1-3)GlcNAc
How it was run: as §1

[30] = target: Gal3S(b1-3)[Fuc(a1-4)]GlcNAc
How it was run: as §1

[31] = target: Gal3S(b1-4)Glc
How it was run: as §1

[32] = target: Gal3S(b1-4)Glc6S
How it was run: as §1

[33] = target: Gal3S(b1-4)GlcNAc
How it was run: as §1

[34] = target: Gal3S(b1-4)[Fuc(a1-3)]Glc6S
How it was run: as §1

[35] = target: Gal3S(b1-4)[Fuc(a1-3)]GlcNAc
How it was run: as §1

[36] = target: Gal3S(b1-4)[Fuc(a1-3)]GlcNAc6S
How it was run: as §1

[37] = target: Gal3S4S(b1-4)GlcNAc
How it was run: as §1

[38] = target: Gal3S6S(b1-4)GlcNAc
How it was run: as §1

[39] = target: Gal3S6S(b1-4)GlcNAc6S
How it was run: as §1

[40] = target: Gal4S(b1-4)GlcNAc
How it was run: as §1

[41] = target: Gal4S6S(b1-4)GlcNAc
How it was run: as §1

[42] = target: Gal6P(b1-4)GlcNAc
How it was run: as §1

[43] = target: Gal6S(b1-3)GlcNAc
How it was run: as §1

[44] = target: Gal6S(b1-3)GlcNAc6S
How it was run: as §1

[45] = target: Gal6S(b1-4)Glc
How it was run: as §1

B1: LecB PA7 (Pseudomonas aeruginosa) (protein)
chain: MATQGVFTLPANTRFGVTAFANSSATQTVKVLVNNETAATFTGQSTNNAVIGSQVLNSGGGGKVQIQVSVNGRSSDLVSAQVILANELNVALVGSEDSTDNDYNDAVVVINWPLG
[1]
  glycan array binding signal (z-score): -0.226
[2]
  glycan array binding signal (z-score): 0.227
[3]
  glycan array binding signal (z-score): -0.502
[4]
  glycan array binding signal (z-score): -0.489
[5]
  glycan array binding signal (z-score): 0.251
[6]
  glycan array binding signal (z-score): 0.021
[7]
  glycan array binding signal (z-score): -0.439
[8]
  glycan array binding signal (z-score): 0.21
[9]
  glycan array binding signal (z-score): 0.012
[10]
  glycan array binding signal (z-score): -0.467
[11]
  glycan array binding signal (z-score): 0.512
[12]
  glycan array binding signal (z-score): 0.197
[13]
  glycan array binding signal (z-score): -0.412
[14]
  glycan array binding signal (z-score): -0.487
[15]
  glycan array binding signal (z-score): -0.495
[16]
  glycan array binding signal (z-score): -0.487
[17]
  glycan array binding signal (z-score): 2.05
[18]
  glycan array binding signal (z-score): -0.505
[19]
  glycan array binding signal (z-score): 0.03
[20]
  glycan array binding signal (z-score): -0.511
[21]
  glycan array binding signal (z-score): -0.043
[22]
  glycan array binding signal (z-score): -0.503
[23]
  glycan array binding signal (z-score): -0.396
[24]
  glycan array binding signal (z-score): -0.349
[25]
  glycan array binding signal (z-score): -0.508
[26]
  glycan array binding signal (z-score): -0.513
[27]
  glycan array binding signal (z-score): -0.493
[28]
  glycan array binding signal (z-score): -0.349
[29]
  glycan array binding signal (z-score): -0.501
[30]
  glycan array binding signal (z-score): 2.65
[31]
  glycan array binding signal (z-score): -0.487
[32]
  glycan array binding signal (z-score): -0.496
[33]
  glycan array binding signal (z-score): -0.497
[34]
  glycan array binding signal (z-score): 0.91
[35]
  glycan array binding signal (z-score): 0.828
[36]
  glycan array binding signal (z-score): -0.51
[37]
  glycan array binding signal (z-score): -0.504
[38]
  glycan array binding signal (z-score): -0.514
[39]
  glycan array binding signal (z-score): -0.506
[40]
  glycan array binding signal (z-score): -0.478
[41]
  glycan array binding signal (z-score): -0.51
[42]
  glycan array binding signal (z-score): -0.507
[43]
  glycan array binding signal (z-score): -0.514
[44]
  glycan array binding signal (z-score): -0.513
[45]
  glycan array binding signal (z-score): -0.49
